The other results are listed elsewhere or left out. These are enrichments in a pooled selection; single values are uncertain. Each score is taken over the longer molecules that contain the sequence shown.
Tested on: IMP3 KH3-4
Assay: 6-mer SELEX enrichment z-score vs GST control; IMP3 is the RNA-binding protein IGF2BP3; higher = more enriched by binding
Settings: construct: KH3-4 (377-579); SELEX round: R4
Protocol: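 SELEX-seq with GST-tagged IMP3 KH3-4 (Pro377-Lys579) and an N40 RNA pool, round 4. 6-mer z-score of sequence-tag enrichment normalised to the corresponding GST SELEX round; RNA k-mers written as DNA (T for U).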

Sequence of IMP3 KH3-4 (chain, as listed by the source): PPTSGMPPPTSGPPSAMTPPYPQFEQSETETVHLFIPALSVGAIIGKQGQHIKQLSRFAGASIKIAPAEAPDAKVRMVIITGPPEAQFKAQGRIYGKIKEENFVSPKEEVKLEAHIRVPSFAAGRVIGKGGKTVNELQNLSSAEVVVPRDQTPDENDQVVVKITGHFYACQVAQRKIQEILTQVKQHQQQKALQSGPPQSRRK

| Sequence | 6-mer SELEX enrichment z-score |
| --- | --- |
| TAACAA | 2.02 |
| AAATGA | 2.4 |
| TGTAGG | 0.122 |
| CGGTGA | 0.212 |
| AGTGTT | -0.148 |
| GGAGCC | -0.628 |
| ACATCA | 0.735 |
| CGGTAA | 0.186 |
| AGAGCC | -1.39 |
| GTTGAG | -0.314 |
| GGACCT | -1.19 |
| CATTAT | 1.91 |
| GGATTG | 0.527 |
| CCTCGA | -1.79 |
| TTTGGG | 0.169 |
| CACAGA | 0.498 |
| ATCAAT | 1.49 |
| CCACCC | -2.16 |
| AATCTT | 0.191 |
| GGCTGC | 0.407 |

| Sequence | 6-mer SELEX enrichment z-score |
| --- | --- |
| ATGCGC | -0.024 |
| AAGCGT | -3.22 |
| TATCGC | 0.352 |
| CCGAAT | -0.979 |
| GTCTAC | -0.332 |
| CTATTT | 1.33 |
| TATTCA | 1.14 |
| TAATAC | 1.5 |
| TGGTGT | 0.11 |
| CAAGAC | -1.13 |
| TATTTA | 1.91 |
| AGTAGA | 0.055 |
| ACGATC | -0.806 |
| ACCTGG | -1.19 |
| TCATGC | 0.04 |
| ACGTTT | -0.394 |
| AGATAT | 1.66 |
| CGTAGG | -0.767 |
| GGAGTC | 0.476 |
| ACTAGG | 0.282 |

Source: the supplement of paper PMC6531468
